The source of these data is the supplement of paper PMC12217912.

To fix the notation:
B1: TEV protease; numbered along this chain (parent)
chain: MGESLFKGPRDYNPISSSICHLTNESDGHTTSLYGIGFGPFIITNKHLFRRNNGTLVVQSLHGVFKVKDTTTLQQHLVDGRDMIIIRMPKDFPPFPQKLKFREPQREERICLVTTNFQTKSMSSMVSDTSCTFPSGDGIFWKHWIQTKDGQCGSPLVSTRDGFIVGIHSASNFTNTNNYFTSVPKNFMELLTNQEAQQWVSGWRLNADSVLWGGHKVFMVKPEEPFQPVKEATQL

Some of the results follow. Sequences were assembled here from the parent chain. Inactive controls read about 0.05.

The assay covers variants of B1. In words: raw area under fraction-flipped curve 0-4 h after induction (AUC4h, not background-subtracted), DNA-recorder readout of cleavage of the substrate (dimensionless); higher = more cleavage of the substrate by the protease variant. As to conditions: temperature: 34 °C; time window: 0-4 h after rhamnose induction. Here is the method: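 In vivo DNA recorder in E. coli TOP10(DE3) ΔrhaA at 34 °C. Each TEVp single-site mutant (parent TEVp 0) is paired with a single-site variant of the 7-mer TEVs (canonical ENLYFQ|S). The substrate sits between flexible linkers in a Bxb1-sfGFP-TEVs-SsrA fusion, so cleavage stabilises Bxb1 and speeds flipping of a recombination array, read by NGS. The value is the raw area under the fraction-flipped curve over 0-4 h after rhamnose induction (AUC4h), with ≥20 reads per time point. It is not background-subtracted; inactive controls average about 0.047.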
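Note: Bxb1 expression induced with 0.2% (w/v) L-rhamnose at OD600 near 0.5, cultures sampled hourly, flipped fraction per protease–substrate barcode pair counted by paired-end Illumina sequencing.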

Consider MGESLFKGPRDYNPIRSSICHLTNESDGHTTSLYGIGFGPFIITNKHLFRRNNGTLVVQSLHGVFKVKDTTTLQQHLVDGRDMIIIRMPKDFPPFPQKLKFREPQREERICLVTTNFQTKSMSSMVSDTSCTFPSGDGIFWKHWIQTKDGQCGSPLVSTRDGFIVGIHSASNFTNTNNYFTSVPKNFMELLTNQEAQQWVSGWRLNADSVLWGGHKVFMVKPEEPFQPVKEATQL [S16R], for which the “area with substrate ENLYFQA” value was determined as 0.111, the “area with substrate ENLYFQC” value came to 0.134, the “area with substrate ENLYFQD” value is 0.0602 and the “area with substrate ENLYFQF” value worked out at 0.0819. The “area with substrate ENLYFQG” value is 0.101, the “area with substrate ENLYFQI” value worked out at 0.0595, the “area with substrate ENLYFQK” value was 0.0751 and the “area with substrate ENLYFQL” value was found to be 0.0644. The “area with substrate ENLYFQM” value was found to be 0.0918, the “area with substrate ENLYFQN” value was found to be 0.0728, the “area with substrate ENLYFQP” value came out at 0.0552 and the “area with substrate ENLYFQQ” value is 0.0694. The “area with substrate ENLYFQR” value is 0.0716, the “area with substrate ENLYFQS” value amounted to 0.111, the “area with substrate ENLYFQT” value turned out to be 0.0744 and the “area with substrate ENLYFQV” value worked out at 0.0636. In addition, the “area with substrate ENLYFQW” value turned out to be 0.0638 and the “area with substrate ENLYFQY” value was 0.0768.
Take MGESLFKGPRDYNPIYSSICHLTNESDGHTTSLYGIGFGPFIITNKHLFRRNNGTLVVQSLHGVFKVKDTTTLQQHLVDGRDMIIIRMPKDFPPFPQKLKFREPQREERICLVTTNFQTKSMSSMVSDTSCTFPSGDGIFWKHWIQTKDGQCGSPLVSTRDGFIVGIHSASNFTNTNNYFTSVPKNFMELLTNQEAQQWVSGWRLNADSVLWGGHKVFMVKPEEPFQPVKEATQL [S16Y]: the “area with substrate ENLYFQA” value is 0.117, the “area with substrate ENLYFQC” value turned out to be 0.116, the “area with substrate ENLYFQD” value was 0.0976 and the “area with substrate ENLYFQG” value is 0.0913. Besides, the “area with substrate ENLYFQI” value was 0.0614, the “area with substrate ENLYFQL” value was found to be 0.0657, the “area with substrate ENLYFQM” value came out at 0.0862 and the “area with substrate ENLYFQP” value stood at 0.0496. Moreover, the “area with substrate ENLYFQR” value turned out to be 0.0614, the “area with substrate ENLYFQS” value was determined as 0.0996, the “area with substrate ENLYFQT” value was determined as 0.0891 and the “area with substrate ENLYFQV” value was 0.0619. Further, the “area with substrate ENLYFQW” value worked out at 0.0803.
MGESLFKGPRDYNPINSSICHLTNESDGHTTSLYGIGFGPFIITNKHLFRRNNGTLVVQSLHGVFKVKDTTTLQQHLVDGRDMIIIRMPKDFPPFPQKLKFREPQREERICLVTTNFQTKSMSSMVSDTSCTFPSGDGIFWKHWIQTKDGQCGSPLVSTRDGFIVGIHSASNFTNTNNYFTSVPKNFMELLTNQEAQQWVSGWRLNADSVLWGGHKVFMVKPEEPFQPVKEATQL [S16N]: the “area with substrate ENLYFQA” value was 0.123, the “area with substrate ENLYFQD” value is 0.0641, the “area with substrate ENLYFQG” value was 0.0908 and the “area with substrate ENLYFQH” value was found to be 0.0794. In addition, the “area with substrate ENLYFQI” value is 0.068, the “area with substrate ENLYFQK” value came to 0.0408, the “area with substrate ENLYFQL” value is 0.0556 and the “area with substrate ENLYFQM” value is 0.0988. The “area with substrate ENLYFQN” value came out at 0.0826, the “area with substrate ENLYFQQ” value amounted to 0.0576, the “area with substrate ENLYFQR” value worked out at 0.0592 and the “area with substrate ENLYFQS” value was 0.104. Also, the “area with substrate ENLYFQT” value came to 0.06, the “area with substrate ENLYFQV” value came out at 0.0822, the “area with substrate ENLYFQW” value stood at 0.0611 and the “area with substrate ENLYFQY” value was determined as 0.0924.
With MGESLFKGPRDYNPIQSSICHLTNESDGHTTSLYGIGFGPFIITNKHLFRRNNGTLVVQSLHGVFKVKDTTTLQQHLVDGRDMIIIRMPKDFPPFPQKLKFREPQREERICLVTTNFQTKSMSSMVSDTSCTFPSGDGIFWKHWIQTKDGQCGSPLVSTRDGFIVGIHSASNFTNTNNYFTSVPKNFMELLTNQEAQQWVSGWRLNADSVLWGGHKVFMVKPEEPFQPVKEATQL [S16Q], the “area with substrate ENLYFQA” value turned out to be 0.109, the “area with substrate ENLYFQC” value came out at 0.123, the “area with substrate ENLYFQD” value is 0.0728 and the “area with substrate ENLYFQE” value is 0.0474. The “area with substrate ENLYFQF” value was determined as 0.0929, the “area with substrate ENLYFQG” value worked out at 0.0871, the “area with substrate ENLYFQH” value stood at 0.0778 and the “area with substrate ENLYFQI” value is 0.0683. The “area with substrate ENLYFQK” value stood at 0.0581, the “area with substrate ENLYFQL” value came to 0.0668, the “area with substrate ENLYFQM” value came out at 0.0923 and the “area with substrate ENLYFQN” value is 0.0891. In addition, the “area with substrate ENLYFQP” value came out at 0.0671, the “area with substrate ENLYFQQ” value worked out at 0.0827, the “area with substrate ENLYFQR” value came to 0.0619 and the “area with substrate ENLYFQS” value came out at 0.108. Further, the “area with substrate ENLYFQT” value stood at 0.0735, the “area with substrate ENLYFQV” value worked out at 0.0603, the “area with substrate ENLYFQW” value was determined as 0.0672 and the “area with substrate ENLYFQY” value was 0.0732.
In the case of MGESLFKGPRDYNPITSSICHLTNESDGHTTSLYGIGFGPFIITNKHLFRRNNGTLVVQSLHGVFKVKDTTTLQQHLVDGRDMIIIRMPKDFPPFPQKLKFREPQREERICLVTTNFQTKSMSSMVSDTSCTFPSGDGIFWKHWIQTKDGQCGSPLVSTRDGFIVGIHSASNFTNTNNYFTSVPKNFMELLTNQEAQQWVSGWRLNADSVLWGGHKVFMVKPEEPFQPVKEATQL [S16T], the “area with substrate ENLYFQA” value turned out to be 0.104, the “area with substrate ENLYFQC” value amounted to 0.115, the “area with substrate ENLYFQG” value worked out at 0.101 and the “area with substrate ENLYFQH” value was 0.0873. The “area with substrate ENLYFQI” value is 0.0615, the “area with substrate ENLYFQK” value is 0.0455, the “area with substrate ENLYFQL” value was 0.0579 and the “area with substrate ENLYFQN” value stood at 0.0672. In addition, the “area with substrate ENLYFQP” value stood at 0.0589, the “area with substrate ENLYFQQ” value is 0.0697, the “area with substrate ENLYFQR” value worked out at 0.0546 and the “area with substrate ENLYFQS” value was 0.102. Moreover, the “area with substrate ENLYFQT” value worked out at 0.0661, the “area with substrate ENLYFQV” value came out at 0.0554 and the “area with substrate ENLYFQW” value stood at 0.0605.
For MGESLFKGPRDYNPISSCICHLTNESDGHTTSLYGIGFGPFIITNKHLFRRNNGTLVVQSLHGVFKVKDTTTLQQHLVDGRDMIIIRMPKDFPPFPQKLKFREPQREERICLVTTNFQTKSMSSMVSDTSCTFPSGDGIFWKHWIQTKDGQCGSPLVSTRDGFIVGIHSASNFTNTNNYFTSVPKNFMELLTNQEAQQWVSGWRLNADSVLWGGHKVFMVKPEEPFQPVKEATQL [S18C], the “area with substrate ENLYFQA” value was determined as 0.11, the “area with substrate ENLYFQC” value came to 0.101, the “area with substrate ENLYFQF” value stood at 0.0744 and the “area with substrate ENLYFQH” value worked out at 0.0739. For the same variant, the “area with substrate ENLYFQI” value is 0.061, the “area with substrate ENLYFQK” value was found to be 0.0647, the “area with substrate ENLYFQL” value was determined as 0.0572 and the “area with substrate ENLYFQM” value turned out to be 0.0928. The “area with substrate ENLYFQN” value amounted to 0.082, the “area with substrate ENLYFQQ” value was determined as 0.0699, the “area with substrate ENLYFQR” value came out at 0.0601 and the “area with substrate ENLYFQS” value was found to be 0.104. For the same variant, the “area with substrate ENLYFQT” value was found to be 0.0825, the “area with substrate ENLYFQV” value turned out to be 0.046, the “area with substrate ENLYFQW” value was determined as 0.0714 and the “area with substrate ENLYFQY” value is 0.0673.
Turning to MGESLFKGPRDYNPISSSICHLPNESDGHTTSLYGIGFGPFIITNKHLFRRNNGTLVVQSLHGVFKVKDTTTLQQHLVDGRDMIIIRMPKDFPPFPQKLKFREPQREERICLVTTNFQTKSMSSMVSDTSCTFPSGDGIFWKHWIQTKDGQCGSPLVSTRDGFIVGIHSASNFTNTNNYFTSVPKNFMELLTNQEAQQWVSGWRLNADSVLWGGHKVFMVKPEEPFQPVKEATQL [T23P], the “area with substrate ENLYFQA” value was found to be 0.0437, the “area with substrate ENLYFQC” value worked out at 0.0439, the “area with substrate ENLYFQE” value was determined as 0.0728 and the “area with substrate ENLYFQG” value stood at 0.0453. For the same variant, the “area with substrate ENLYFQH” value amounted to 0.0497, the “area with substrate ENLYFQI” value came out at 0.0457, the “area with substrate ENLYFQL” value was 0.0316 and the “area with substrate ENLYFQM” value amounted to 0.0466. In addition, the “area with substrate ENLYFQN” value turned out to be 0.0394, the “area with substrate ENLYFQP” value amounted to 0.0467, the “area with substrate ENLYFQR” value was 0.0433 and the “area with substrate ENLYFQS” value was 0.0443. In addition, the “area with substrate ENLYFQT” value stood at 0.0447, the “area with substrate ENLYFQV” value was determined as 0.0288, the “area with substrate ENLYFQW” value turned out to be 0.0298 and the “area with substrate ENLYFQY” value was determined as 0.0429.
Turning to MGESLFKGPRDYNPISSSRCHLTNESDGHTTSLYGIGFGPFIITNKHLFRRNNGTLVVQSLHGVFKVKDTTTLQQHLVDGRDMIIIRMPKDFPPFPQKLKFREPQREERICLVTTNFQTKSMSSMVSDTSCTFPSGDGIFWKHWIQTKDGQCGSPLVSTRDGFIVGIHSASNFTNTNNYFTSVPKNFMELLTNQEAQQWVSGWRLNADSVLWGGHKVFMVKPEEPFQPVKEATQL [I19R], the “area with substrate ENLYFQA” value came to 0.0655, the “area with substrate ENLYFQC” value was 0.0726, the “area with substrate ENLYFQD” value was determined as 0.0568 and the “area with substrate ENLYFQG” value amounted to 0.0571. The “area with substrate ENLYFQI” value came to 0.042, the “area with substrate ENLYFQK” value is 0.0577, the “area with substrate ENLYFQL” value stood at 0.0478 and the “area with substrate ENLYFQM” value came out at 0.0551. Further, the “area with substrate ENLYFQN” value was 0.0492, the “area with substrate ENLYFQP” value was 0.0536, the “area with substrate ENLYFQR” value was 0.0569 and the “area with substrate ENLYFQS” value came to 0.0571. Also, the “area with substrate ENLYFQT” value worked out at 0.0324, the “area with substrate ENLYFQV” value was found to be 0.051, the “area with substrate ENLYFQW” value turned out to be 0.0494 and the “area with substrate ENLYFQY” value came out at 0.0628.
